Some of the results follow.
What was measured:
Experiment in all cases: glycan array binding signal (z-score within array); higher = stronger binding
Settings in all cases: glycan notation: IUPAC condensed, linker removed
[1] = target: Gal(b1-4)GlcNAc(b1-3)Gal(b1-4)GlcNAc(b1-2)Man(a1-3)[Gal(b1-4)GlcNAc(b1-3)Gal(b1-4)GlcNAc(b1-2)Man(a1-6)]Man(b1-4)GlcNAc(b1-4)[Fuc(a1-6)]GlcNAc
Outline: (§1)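 Negative Z-scores can be read as non-binding. The Z-score is calculated within each array and then averaged across arrays of one protein sequence at different concentrations or buffers and across linkers. Arrays, 3228 in all, were curated from the Consortium for Functional Glycomics database and kept only where the protein sequence was available.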

[2] = target: Gal(b1-4)GlcNAc(b1-3)Gal(b1-4)GlcNAc(b1-2)[Gal(b1-4)GlcNAc(b1-3)Gal(b1-4)GlcNAc(b1-6)]Man(a1-6)[Gal(b1-4)GlcNAc(b1-3)Gal(b1-4)GlcNAc(b1-2)Man(a1-3)]Man(b1-4)GlcNAc(b1-4)GlcNAc
Outline: as §1

[3] = target: Gal(b1-4)GlcNAc(b1-3)Gal(b1-4)GlcNAc(b1-2)[Gal(b1-4)GlcNAc(b1-3)Gal(b1-4)GlcNAc(b1-6)]Man(a1-6)[Gal(b1-4)GlcNAc(b1-3)Gal(b1-4)GlcNAc(b1-2)Man(a1-3)]Man(b1-4)GlcNAc(b1-4)[Fuc(a1-6)]GlcNAc
Outline: as §1

[4] = target: Gal(b1-4)GlcNAc(b1-3)Gal(b1-4)GlcNAc(b1-3)Gal(b1-4)GlcNAc
Outline: as §1

[5] = target: Gal(b1-4)GlcNAc(b1-3)Gal(b1-4)GlcNAc(b1-3)Gal(b1-4)GlcNAc(b1-2)Man(a1-3)[Gal(b1-4)GlcNAc(b1-3)Gal(b1-4)GlcNAc(b1-3)Gal(b1-4)GlcNAc(b1-2)Man(a1-6)]Man(b1-4)GlcNAc(b1-4)GlcNAc
Outline: as §1

[6] = target: Gal(b1-4)GlcNAc(b1-3)Gal(b1-4)GlcNAc(b1-3)Gal(b1-4)GlcNAc(b1-2)Man(a1-3)[Gal(b1-4)GlcNAc(b1-3)Gal(b1-4)GlcNAc(b1-3)Gal(b1-4)GlcNAc(b1-2)Man(a1-6)]Man(b1-4)GlcNAc(b1-4)[Fuc(a1-6)]GlcNAc
Outline: as §1

[7] = target: Gal(b1-4)GlcNAc(b1-3)Gal(b1-4)GlcNAc(b1-3)Gal(b1-4)GlcNAc(b1-2)[Gal(b1-4)GlcNAc(b1-3)Gal(b1-4)GlcNAc(b1-3)Gal(b1-4)GlcNAc(b1-6)]Man(a1-6)[Gal(b1-4)GlcNAc(b1-3)Gal(b1-4)GlcNAc(b1-3)Gal(b1-4)GlcNAc(b1-2)Man(a1-3)]Man(b1-4)GlcNAc(b1-4)[Fuc(a1-6)]GlcNAc
Outline: as §1

[8] = target: Gal(b1-4)GlcNAc(b1-3)Gal(b1-4)GlcNAc(b1-3)Gal(b1-4)GlcNAc(b1-3)Gal(b1-4)GlcNAc(b1-2)Man(a1-3)[Gal(b1-4)GlcNAc(b1-3)Gal(b1-4)GlcNAc(b1-3)Gal(b1-4)GlcNAc(b1-3)Gal(b1-4)GlcNAc(b1-2)Man(a1-6)]Man(b1-4)GlcNAc(b1-4)GlcNAc
Outline: as §1

[9] = target: Gal(b1-4)GlcNAc(b1-3)Gal(b1-4)GlcNAc(b1-3)Gal(b1-4)GlcNAc(b1-3)Gal(b1-4)GlcNAc(b1-2)Man(a1-3)[Gal(b1-4)GlcNAc(b1-3)Gal(b1-4)GlcNAc(b1-3)Gal(b1-4)GlcNAc(b1-3)Gal(b1-4)GlcNAc(b1-2)Man(a1-6)]Man(b1-4)GlcNAc(b1-4)[Fuc(a1-6)]GlcNAc
Outline: as §1

[10] = target: Gal(b1-4)GlcNAc(b1-3)Gal(b1-4)GlcNAc(b1-3)Gal(b1-4)GlcNAc(b1-3)Gal(b1-4)GlcNAc(b1-2)[Gal(b1-4)GlcNAc(b1-3)Gal(b1-4)GlcNAc(b1-3)Gal(b1-4)GlcNAc(b1-3)Gal(b1-4)GlcNAc(b1-6)]Man(a1-6)[Gal(b1-4)GlcNAc(b1-3)Gal(b1-4)GlcNAc(b1-3)Gal(b1-4)GlcNAc(b1-3)Gal(b1-4)GlcNAc(b1-2)Man(a1-3)]Man(b1-4)GlcNAc(b1-4)[Fuc(a1-6)]GlcNAc
Outline: as §1

[11] = target: Gal(b1-4)GlcNAc(b1-3)Gal(b1-4)GlcNAc(b1-3)Gal(b1-4)GlcNAc(b1-3)Gal(b1-4)GlcNAc(b1-3)Gal(b1-4)GlcNAc(b1-2)Man(a1-3)[Gal(b1-4)GlcNAc(b1-3)Gal(b1-4)GlcNAc(b1-3)Gal(b1-4)GlcNAc(b1-3)Gal(b1-4)GlcNAc(b1-3)Gal(b1-4)GlcNAc(b1-2)Man(a1-6)]Man(b1-4)GlcNAc(b1-4)GlcNAc
Outline: as §1

[12] = target: Gal(b1-4)GlcNAc(b1-3)Gal(b1-4)GlcNAc(b1-3)Gal(b1-4)GlcNAc(b1-3)Gal(b1-4)GlcNAc(b1-3)Gal(b1-4)GlcNAc(b1-2)Man(a1-3)[Gal(b1-4)GlcNAc(b1-3)Gal(b1-4)GlcNAc(b1-3)Gal(b1-4)GlcNAc(b1-3)Gal(b1-4)GlcNAc(b1-3)Gal(b1-4)GlcNAc(b1-2)Man(a1-6)]Man(b1-4)GlcNAc(b1-4)[Fuc(a1-6)]GlcNAc
Outline: as §1

[13] = target: Gal(b1-4)GlcNAc(b1-3)Gal(b1-4)GlcNAc(b1-3)Gal(b1-4)GlcNAc(b1-3)Gal(b1-4)GlcNAc(b1-3)Gal(b1-4)GlcNAc(b1-2)[Gal(b1-4)GlcNAc(b1-3)Gal(b1-4)GlcNAc(b1-3)Gal(b1-4)GlcNAc(b1-3)Gal(b1-4)GlcNAc(b1-3)Gal(b1-4)GlcNAc(b1-6)]Man(a1-6)[Gal(b1-4)GlcNAc(b1-3)Gal(b1-4)GlcNAc(b1-3)Gal(b1-4)GlcNAc(b1-3)Gal(b1-4)GlcNAc(b1-3)Gal(b1-4)GlcNAc(b1-2)Man(a1-3)]Man(b1-4)GlcNAc(b1-4)[Fuc(a1-6)]GlcNAc
Outline: as §1

[14] = target: Gal(b1-4)GlcNAc(b1-3)Gal(b1-4)GlcNAc(b1-3)Gal(b1-4)GlcNAc(b1-3)Gal(b1-4)GlcNAc(b1-3)Gal(b1-4)GlcNAc(b1-3)Gal(b1-4)GlcNAc(b1-2)Man(a1-3)[Gal(b1-4)GlcNAc(b1-3)Gal(b1-4)GlcNAc(b1-3)Gal(b1-4)GlcNAc(b1-3)Gal(b1-4)GlcNAc(b1-3)Gal(b1-4)GlcNAc(b1-3)Gal(b1-4)GlcNAc(b1-2)Man(a1-6)]Man(b1-4)GlcNAc(b1-4)GlcNAc
Outline: as §1

[15] = target: Gal(b1-4)GlcNAc(b1-3)Gal(b1-4)GlcNAc(b1-3)GalNAc
Outline: as §1

[16] = target: Gal(b1-4)GlcNAc(b1-3)Gal(b1-4)GlcNAc(b1-3)[Gal(b1-4)GlcNAc(b1-3)Gal(b1-4)GlcNAc(b1-6)]GalNAc
Outline: as §1

[17] = target: Gal(b1-4)GlcNAc(b1-3)Gal(b1-4)GlcNAc(b1-6)[Gal(b1-3)]GalNAc
Outline: as §1

[18] = target: Gal(b1-4)GlcNAc(b1-3)Gal(b1-4)[Fuc(a1-3)]GlcNAc(b1-3)Gal(b1-4)[Fuc(a1-3)]GlcNAc
Outline: as §1

[19] = target: Gal(b1-4)GlcNAc(b1-3)GalNAc
Outline: as §1

[20] = target: Gal(b1-4)GlcNAc(b1-3)[Fuc(a1-3)GlcNAc(b1-6)]Gal(b1-4)Glc
Outline: as §1

[21] = target: Gal(b1-4)GlcNAc(b1-3)[Gal(b1-4)GlcNAc(b1-6)]Gal(b1-4)GlcNAc
Outline: as §1

[22] = target: Gal(b1-4)GlcNAc(b1-3)[GlcNAc(b1-6)]Gal(b1-4)GlcNAc
Outline: as §1

B1: HBHA-Rv (Mycobacterium tuberculosum), P0A5P6 (protein)
chain: MAENSNIDDIKAPLLAALGAADLALATVNELITNLRERAEETRTDTRSRVEESRARLTKLQEDLPEQLTELREKFTAEELRKAAEGYLEAATSRYNELVERGEAALERLRSQQSFEEVSARAEGYVDQAVELTQEALGTVASQTRAVGERAAKLVGIELPKKAAPAKKAAPAKKAAPAKKAAAKKAPAKKAAAKKVTQK
glycan array binding signal (z-score) [1]: -0.435 | glycan array binding signal (z-score) [2]: 0.835 | glycan array binding signal (z-score) [3]: -0.388 | glycan array binding signal (z-score) [4]: -0.052 | glycan array binding signal (z-score) [5]: -0.256 | glycan array binding signal (z-score) [6]: -0.449 | glycan array binding signal (z-score) [7]: -0.41 | glycan array binding signal (z-score) [8]: -0.448 | glycan array binding signal (z-score) [9]: -0.451 | glycan array binding signal (z-score) [10]: -0.444 | glycan array binding signal (z-score) [11]: -0.467 | glycan array binding signal (z-score) [12]: -0.442 | glycan array binding signal (z-score) [13]: -0.4 | glycan array binding signal (z-score) [14]: -0.343 | glycan array binding signal (z-score) [15]: -0.429 | glycan array binding signal (z-score) [16]: -0.22 | glycan array binding signal (z-score) [17]: -0.399 | glycan array binding signal (z-score) [18]: -0.022 | glycan array binding signal (z-score) [19]: 0.153 | glycan array binding signal (z-score) [20]: -0.398 | glycan array binding signal (z-score) [21]: -0.469 | glycan array binding signal (z-score) [22]: -0.345
